The values below come from the supplement of paper PMC6531468.

Some of the results follow. Values come from read counts of a selection and are noisy. Each score is taken over the longer molecules that contain the sequence shown.

Sequence of UniProt O00425 (O00425 whole entry): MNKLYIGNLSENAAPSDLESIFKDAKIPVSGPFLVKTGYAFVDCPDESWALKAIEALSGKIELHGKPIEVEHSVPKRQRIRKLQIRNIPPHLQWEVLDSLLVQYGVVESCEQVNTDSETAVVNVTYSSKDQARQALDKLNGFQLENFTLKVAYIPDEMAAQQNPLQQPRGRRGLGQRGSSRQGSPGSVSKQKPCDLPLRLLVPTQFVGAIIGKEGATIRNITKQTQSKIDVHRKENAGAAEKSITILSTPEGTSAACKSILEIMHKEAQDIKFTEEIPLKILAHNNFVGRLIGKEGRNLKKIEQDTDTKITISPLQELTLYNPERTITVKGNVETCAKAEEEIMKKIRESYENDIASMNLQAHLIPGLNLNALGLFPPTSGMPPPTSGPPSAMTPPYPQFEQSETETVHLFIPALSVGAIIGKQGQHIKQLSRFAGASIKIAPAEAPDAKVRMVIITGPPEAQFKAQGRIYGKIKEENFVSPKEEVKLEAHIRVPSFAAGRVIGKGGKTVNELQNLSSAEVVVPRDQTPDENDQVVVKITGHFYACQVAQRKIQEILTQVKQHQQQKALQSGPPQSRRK

The target in this experiment is IMP3 full-length (UniProt O00425). As to the kind of experiment: 6-mer SELEX enrichment z-score vs GST control; IMP3 is the RNA-binding protein IGF2BP3; higher = more enriched by binding. To be noted: construct: FL IMP3 (1-579); SELEX round: R4. As to the method:
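SELEX-seq with GST-tagged full-length IMP3 and an N40 RNA pool, round 4. Each 6-mer is scored as an enrichment z-score of sequence tags containing it, normalised to the matching GST SELEX round. RNA written as DNA (T = U).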
For AACCAG, the “6-mer SELEX enrichment z-score” value was -0.798.

Consider CATTCG, for which the “6-mer SELEX enrichment z-score” value was 0.877.

Consider ACCAGG, for which the “6-mer SELEX enrichment z-score” value was -0.017.

TAGGTT: the “6-mer SELEX enrichment z-score” value is 0.072.

On to TCATAG, for which the “6-mer SELEX enrichment z-score” value turned out to be 0.912.

Turning to TCTTCG, the “6-mer SELEX enrichment z-score” value was 0.024.

Consider TCCTCA, for which the “6-mer SELEX enrichment z-score” value stood at 0.217.

For ACAGGT, the “6-mer SELEX enrichment z-score” value was found to be 0.809.

Consider CATTGC, for which the “6-mer SELEX enrichment z-score” value stood at 0.849.

Take TAATTA: the “6-mer SELEX enrichment z-score” value was 0.048.

Regarding CGTCAA, the “6-mer SELEX enrichment z-score” value is 0.071.

GGCGCC: the “6-mer SELEX enrichment z-score” value was found to be 0.72.

Take GCTGTC: the “6-mer SELEX enrichment z-score” value stood at 0.373.

As for ACCGCG, the “6-mer SELEX enrichment z-score” value is -0.397.

For ACAATG, the “6-mer SELEX enrichment z-score” value stood at 0.602.

In the case of TTTGAA, the “6-mer SELEX enrichment z-score” value was -0.413.

In the case of ACTTGG, the “6-mer SELEX enrichment z-score” value was -0.112.

With CAACAT, the “6-mer SELEX enrichment z-score” value came out at 2.71.

For the sequence GGGTCT, the “6-mer SELEX enrichment z-score” value stood at 0.28.

As to CCGCTT, the “6-mer SELEX enrichment z-score” value is -0.071.

With CTATCG, the “6-mer SELEX enrichment z-score” value was -0.14.

With CTGCGA, the “6-mer SELEX enrichment z-score” value is -0.429.

As to AACCGG, the “6-mer SELEX enrichment z-score” value was -0.547.

For TGTGAA, the “6-mer SELEX enrichment z-score” value was -0.736.

In the case of GTACGC, the “6-mer SELEX enrichment z-score” value was -0.02.

As to TATTGA, the “6-mer SELEX enrichment z-score” value was -0.228.

With ATAAGG, the “6-mer SELEX enrichment z-score” value amounted to 0.198.

As for CCAGGG, the “6-mer SELEX enrichment z-score” value was -0.053.

For the sequence ACTAGC, the “6-mer SELEX enrichment z-score” value is -0.227.

On to TTGAAG, for which the “6-mer SELEX enrichment z-score” value is -0.395.

For the sequence GTCGCA, the “6-mer SELEX enrichment z-score” value amounted to 0.93.

For GGGAGC, the “6-mer SELEX enrichment z-score” value stood at 0.348.

As for TGGGGC, the “6-mer SELEX enrichment z-score” value turned out to be 0.547.

In the case of TCCTCG, the “6-mer SELEX enrichment z-score” value is 0.083.

As for GAGCCA, the “6-mer SELEX enrichment z-score” value came to 0.013.

As to CATGGG, the “6-mer SELEX enrichment z-score” value is 0.779.

Take AGAATG: the “6-mer SELEX enrichment z-score” value was -0.372.

For ACGGCC, the “6-mer SELEX enrichment z-score” value was 1.41.

As to ACGTTG, the “6-mer SELEX enrichment z-score” value was -0.448.

Take TCTTAA: the “6-mer SELEX enrichment z-score” value is -0.124.
